Data: the supplement of paper PMC4604168 (melanoma cell lines)
The list shows a part of the results. Most values come without repeats; read them as rough.

test system: MeWo; assay: cell count relative to DMSO control; melanoma cells; higher = more viable cells; conditions: library dose: standard library concentration; 72 h
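Note: cells treated in 1,536-well plates, then fixed and DAPI-stained, with nuclei counted from automated high-throughput microscope images.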

| SMILES | cell count |
| --- | --- |
| CCCCCCCCc1ccc(CCC(N)(CO)CO)cc1 [fingolimod] + CC(C)CCN1c2nc(Nc3cc(F)c(O)c(F)c3)ncc2N(C)C(=O)C1C [BID1870] (first compound 10 µM, partner dose 1 µM) | 46.3% |
| NC(=O)c1ccc(N(C(N)=O)c2c(F)cccc2F)nc1-c1ccc(F)cc1F + N#Cc1c(O)c2c(-c3ccc(-c4ccccc4O)cc3)csc2[nH]c1=O [A769662] (first compound 2 µM, partner dose 10 µM) | 86.4% |
| CCCCCCCCc1ccc(CCC(N)(CO)CO)cc1 [fingolimod] + O=C(O)c1ccc(-c2c[nH]c3ncc(-c4ccccc4)cc23)cc1C1CCCC1 [GSK650394] (first compound 10 µM, partner dose 0.8 µM) | 22.1% |
| CCCCCCCCc1ccc(CCC(N)(CO)CO)cc1 [fingolimod] + CCN(CC)CCCCNc1ncc2cc(-c3cc(OC)cc(OC)c3)c(NC(=O)NC(C)(C)C)nc2n1 [PD173074] (first compound 10 µM, partner dose 0.5 µM) | 49.8% |
| NC(=O)c1ccc(N(C(N)=O)c2c(F)cccc2F)nc1-c1ccc(F)cc1F + CCCCCCCCCCCC1=C(O)C(=O)C=C(O)C1=O [Embelin] (first compound 2 µM, partner dose 6 µM) | 93.2% |
| CCCCCCCCc1ccc(CCC(N)(CO)CO)cc1 [fingolimod] + O=C(Nc1ccccc1)c1cc([N+](=O)[O-])ccc1Cl [GW9662] (first compound 10 µM, partner dose 10 µM) | 5.59% |
| NC(=O)c1ccc(N(C(N)=O)c2c(F)cccc2F)nc1-c1ccc(F)cc1F + Cn1cc(/C=C2\C(=O)Nc3cccnc32)c2ccccc21 [GW441756] (first compound 2 µM, partner dose 2 µM) | 86% |
